{"source": "the supplement of paper PMC8728848", "assay_in_all_cases": "glycan array binding signal (z-score within array); higher = stronger binding", "settings_in_all_cases": "glycan notation: IUPAC condensed, linker removed", "key": {"Gal(a1-3)Gal(b1-4)GlcNAc": {"target": "Gal(a1-3)Gal(b1-4)GlcNAc", "method_in_brief": "(§1)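 Glycan array binding is given as a within-array Z-score, which can be read as non-binding when negative. The arrays, 3228 of them, came from the Consortium for Functional Glycomics database and were retained only where the protein sequence was available. Z-scores were averaged across arrays of the same protein sequence at different concentrations or buffers and across linkers.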"}, "[1]": {"target": "Gal(a1-3)Gal(b1-4)GlcNAc(b1-2)Man", "method_in_brief": "as §1"}, "[2]": {"target": "Gal(a1-3)Gal(b1-4)GlcNAc(b1-2)Man(a1-3)[Gal(a1-3)Gal(b1-4)GlcNAc(b1-2)Man(a1-6)]Man(b1-4)GlcNAc(b1-4)GlcNAc", "method_in_brief": "as §1"}, "[3]": {"target": "Gal(a1-3)Gal(b1-4)GlcNAc(b1-3)GalNAc", "method_in_brief": "as §1"}, "[4]": {"target": "Gal(a1-3)Gal(b1-4)GlcNAc(b1-6)GalNAc", "method_in_brief": "as §1"}, "[5]": {"target": "Gal(a1-3)Gal(b1-4)[Fuc(a1-3)]GlcNAc", "method_in_brief": "as §1"}, "[6]": {"target": "Gal(a1-3)Gal(b1-4)[Fuc(a1-3)]GlcNAc(b1-2)Man(a1-3)[Gal(a1-3)Gal(b1-4)[Fuc(a1-3)]GlcNAc(b1-2)Man(a1-6)]Man(b1-4)GlcNAc(b1-4)GlcNAc", "method_in_brief": "as §1"}, "Gal(a1-3)GalNAc": {"target": "Gal(a1-3)GalNAc", "method_in_brief": "as §1"}, "[7]": {"target": "Gal(a1-3)[Gal(a1-4)]Gal(b1-4)GlcNAc", "method_in_brief": "as §1"}, "[8]": {"target": "Gal(a1-4)Gal(b1-3)GlcNAc(b1-2)Man(a1-3)[Gal(a1-4)Gal(b1-3)GlcNAc(b1-2)Man(a1-6)]Man(b1-4)GlcNAc(b1-4)GlcNAc", "method_in_brief": "as §1"}, "Gal(a1-4)Gal(b1-4)Glc": {"target": "Gal(a1-4)Gal(b1-4)Glc", "method_in_brief": "as §1"}, "Gal(a1-4)Gal(b1-4)GlcNAc": {"target": "Gal(a1-4)Gal(b1-4)GlcNAc", "method_in_brief": "as §1"}, "[9]": {"target": "Gal(a1-4)Gal(b1-4)GlcNAc(b1-2)Man(a1-3)[Gal(a1-4)Gal(b1-4)GlcNAc(b1-2)Man(a1-6)]Man(b1-4)GlcNAc(b1-4)GlcNAc", "method_in_brief": "as §1"}, "[10]": {"target": "Gal(a1-4)Gal(b1-4)GlcNAc(b1-3)Gal(b1-4)Glc", "method_in_brief": "as §1"}, "Gal(a1-4)GlcNAc": {"target": "Gal(a1-4)GlcNAc", "method_in_brief": "as §1"}, "Gal(a1-6)Glc": {"target": "Gal(a1-6)Glc", "method_in_brief": "as §1"}, "Gal(b1-2)Gal": {"target": "Gal(b1-2)Gal", "method_in_brief": "as §1"}, "Gal(b1-3)Gal": {"target": "Gal(b1-3)Gal", "method_in_brief": "as §1"}, "Gal(b1-3)Gal(b1-4)GlcNAc": {"target": "Gal(b1-3)Gal(b1-4)GlcNAc", "method_in_brief": "as §1"}, "Gal(b1-3)GalNAc": {"target": "Gal(b1-3)GalNAc", "method_in_brief": "as §1"}, "[11]": {"target": "Gal(b1-3)GalNAc(a1-3)[Fuc(a1-2)]Gal(b1-4)Glc", "method_in_brief": "as §1"}, "[12]": {"target": "Gal(b1-3)GalNAc(a1-3)[Fuc(a1-2)]Gal(b1-4)GlcNAc", "method_in_brief": "as §1"}, "Gal(b1-3)GalNAc(b1-3)Gal": {"target": "Gal(b1-3)GalNAc(b1-3)Gal", "method_in_brief": "as §1"}, "[13]": {"target": "Gal(b1-3)GalNAc(b1-3)Gal(a1-4)Gal(b1-4)Glc", "method_in_brief": "as §1"}, "[14]": {"target": "Gal(b1-3)GalNAc(b1-4)Gal(b1-4)Glc", "method_in_brief": "as §1"}, "[15]": {"target": "Gal(b1-3)GalNAc(b1-4)[Neu5Ac(a2-3)]Gal(b1-4)Glc", "method_in_brief": "as §1"}, "Gal(b1-3)GlcNAc": {"target": "Gal(b1-3)GlcNAc", "method_in_brief": "as §1"}, "[16]": {"target": "Gal(b1-3)GlcNAc(a1-3)Gal(b1-4)GlcNAc", "method_in_brief": "as §1"}, "[17]": {"target": "Gal(b1-3)GlcNAc(a1-6)Gal(b1-4)GlcNAc", "method_in_brief": "as §1"}, "Gal(b1-3)GlcNAc(b1-2)Man": {"target": "Gal(b1-3)GlcNAc(b1-2)Man", "method_in_brief": "as §1"}, "[18]": {"target": "Gal(b1-3)GlcNAc(b1-2)Man(a1-3)[Gal(b1-3)GlcNAc(b1-2)Man(a1-6)]Man(b1-4)GlcNAc(b1-4)GlcNAc", "method_in_brief": "as §1"}, "[19]": {"target": "Gal(b1-3)GlcNAc(b1-2)Man(a1-3)[Gal(b1-3)GlcNAc(b1-2)Man(a1-6)]Man(b1-4)GlcNAc(b1-4)[Fuc(a1-6)]GlcNAc", "method_in_brief": "as §1"}, "[20]": {"target": "Gal(b1-3)GlcNAc(b1-2)Man(a1-3)[GlcNAc(b1-4)][Gal(b1-3)GlcNAc(b1-2)Man(a1-6)]Man(b1-4)GlcNAc(b1-4)GlcNAc", "method_in_brief": "as §1"}, "[21]": {"target": "Gal(b1-3)GlcNAc(b1-2)[Gal(b1-3)GlcNAc(b1-6)]Man(a1-6)[Gal(b1-3)GlcNAc(b1-2)Man(a1-3)]Man(b1-4)GlcNAc(b1-4)GlcNAc", "method_in_brief": "as §1"}, "[22]": {"target": "Gal(b1-3)GlcNAc(b1-3)Gal(b1-3)GlcNAc", "method_in_brief": "as §1"}, "[23]": {"target": "Gal(b1-3)GlcNAc(b1-3)Gal(b1-4)Glc", "method_in_brief": "as §1"}, "[24]": {"target": "Gal(b1-3)GlcNAc(b1-3)Gal(b1-4)GlcNAc", "method_in_brief": "as §1"}, "[25]": {"target": "Gal(b1-3)GlcNAc(b1-3)Gal(b1-4)GlcNAc(b1-2)Man(a1-3)[Gal(b1-3)GlcNAc(b1-3)Gal(b1-4)GlcNAc(b1-2)Man(a1-6)]Man(b1-4)GlcNAc(b1-4)GlcNAc", "method_in_brief": "as §1"}, "[26]": {"target": "Gal(b1-3)GlcNAc(b1-3)Gal(b1-4)GlcNAc(b1-2)[Gal(b1-3)GlcNAc(b1-3)Gal(b1-4)GlcNAc(b1-6)]Man(a1-6)[Gal(b1-3)GlcNAc(b1-3)Gal(b1-4)GlcNAc(b1-2)Man(a1-3)]Man(b1-4)GlcNAc(b1-4)[Fuc(a1-6)]GlcNAc", "method_in_brief": "as §1"}, "[27]": {"target": "Gal(b1-3)GlcNAc(b1-3)Gal(b1-4)GlcNAc(b1-3)Gal(b1-4)GlcNAc(b1-2)[Gal(b1-3)GlcNAc(b1-3)Gal(b1-4)GlcNAc(b1-3)Gal(b1-4)GlcNAc(b1-6)]Man(a1-6)[Gal(b1-3)GlcNAc(b1-3)Gal(b1-4)GlcNAc(b1-3)Gal(b1-4)GlcNAc(b1-2)Man(a1-3)]Man(b1-4)GlcNAc(b1-4)[Fuc(a1-6)]GlcNAc", "method_in_brief": "as §1"}, "[28]": {"target": "Gal(b1-3)GlcNAc(b1-3)Gal(b1-4)GlcNAc(b1-6)[Gal(b1-3)GlcNAc(b1-3)]Gal(b1-4)Glc", "method_in_brief": "as §1"}, "[29]": {"target": "Gal(b1-3)GlcNAc(b1-3)Gal(b1-4)[Fuc(a1-3)]GlcNAc", "method_in_brief": "as §1"}, "[30]": {"target": "Gal(b1-3)GlcNAc(b1-3)Gal(b1-4)[Fuc(a1-3)]GlcNAc(b1-6)[Gal(b1-3)GlcNAc(b1-3)]Gal(b1-4)Glc", "method_in_brief": "as §1"}, "[31]": {"target": "Gal(b1-3)GlcNAc(b1-3)GalNAc", "method_in_brief": "as §1"}, "[32]": {"target": "Gal(b1-3)GlcNAc(b1-6)Gal(b1-4)GlcNAc", "method_in_brief": "as §1"}}, "note": "The other results are listed elsewhere or left out."}
{"binder": "LFA (Limax flavus) (protein) MSVLFLAASFLLLASFELVAAQGCPRQDPGDWIVIQRRLNADVNFYRGWADYKHGFGDLRCNFWLGNEKIHQLTSHGRYKLRVEFTFNNKSYFAEYSTFKILGEADKYKLQVGGYSGNAGDALTFHNGMAFSTNDRDNDADSIDCAKVYHGAWWYKTCHESNLNGKWGSKKYGEGLNWKAKTTFTATATSSLLKIKALK", "values": [{"measurement": "glycan array binding signal (z-score)", "setting": "Gal(a1-3)Gal(b1-4)GlcNAc", "result": -0.218}, {"measurement": "glycan array binding signal (z-score)", "setting": "[1]", "result": -0.358}, {"measurement": "glycan array binding signal (z-score)", "setting": "[2]", "result": -0.074}, {"measurement": "glycan array binding signal (z-score)", "setting": "[3]", "result": -0.016}, {"measurement": "glycan array binding signal (z-score)", "setting": "[4]", "result": -0.267}, {"measurement": "glycan array binding signal (z-score)", "setting": "[5]", "result": -0.153}, {"measurement": "glycan array binding signal (z-score)", "setting": "[6]", "result": 0.16}, {"measurement": "glycan array binding signal (z-score)", "setting": "Gal(a1-3)GalNAc", "result": 0.075}, {"measurement": "glycan array binding signal (z-score)", "setting": "[7]", "result": -0.047}, {"measurement": "glycan array binding signal (z-score)", "setting": "[8]", "result": -0.353}, {"measurement": "glycan array binding signal (z-score)", "setting": "Gal(a1-4)Gal(b1-4)Glc", "result": -0.27}, {"measurement": "glycan array binding signal (z-score)", "setting": "Gal(a1-4)Gal(b1-4)GlcNAc", "result": -0.295}, {"measurement": "glycan array binding signal (z-score)", "setting": "[9]", "result": -0.253}, {"measurement": "glycan array binding signal (z-score)", "setting": "[10]", "result": -0.307}, {"measurement": "glycan array binding signal (z-score)", "setting": "Gal(a1-4)GlcNAc", "result": -0.3}, {"measurement": "glycan array binding signal (z-score)", "setting": "Gal(a1-6)Glc", "result": -0.229}, {"measurement": "glycan array binding signal (z-score)", "setting": "Gal(b1-2)Gal", "result": -0.134}, {"measurement": "glycan array binding signal (z-score)", "setting": "Gal(b1-3)Gal", "result": -0.302}, {"measurement": "glycan array binding signal (z-score)", "setting": "Gal(b1-3)Gal(b1-4)GlcNAc", "result": -0.199}, {"measurement": "glycan array binding signal (z-score)", "setting": "Gal(b1-3)GalNAc", "result": 0.747}, {"measurement": "glycan array binding signal (z-score)", "setting": "[11]", "result": -0.301}, {"measurement": "glycan array binding signal (z-score)", "setting": "[12]", "result": -0.28}, {"measurement": "glycan array binding signal (z-score)", "setting": "Gal(b1-3)GalNAc(b1-3)Gal", "result": -0.399}, {"measurement": "glycan array binding signal (z-score)", "setting": "[13]", "result": -0.197}, {"measurement": "glycan array binding signal (z-score)", "setting": "[14]", "result": -0.279}, {"measurement": "glycan array binding signal (z-score)", "setting": "[15]", "result": -0.338}, {"measurement": "glycan array binding signal (z-score)", "setting": "Gal(b1-3)GlcNAc", "result": -0.322}, {"measurement": "glycan array binding signal (z-score)", "setting": "[16]", "result": -0.103}, {"measurement": "glycan array binding signal (z-score)", "setting": "[17]", "result": -0.266}, {"measurement": "glycan array binding signal (z-score)", "setting": "Gal(b1-3)GlcNAc(b1-2)Man", "result": -0.244}, {"measurement": "glycan array binding signal (z-score)", "setting": "[18]", "result": 0.206}, {"measurement": "glycan array binding signal (z-score)", "setting": "[19]", "result": -0.157}, {"measurement": "glycan array binding signal (z-score)", "setting": "[20]", "result": -0.23}, {"measurement": "glycan array binding signal (z-score)", "setting": "[21]", "result": -0.241}, {"measurement": "glycan array binding signal (z-score)", "setting": "[22]", "result": -0.356}, {"measurement": "glycan array binding signal (z-score)", "setting": "[23]", "result": -0.282}, {"measurement": "glycan array binding signal (z-score)", "setting": "[24]", "result": -0.352}, {"measurement": "glycan array binding signal (z-score)", "setting": "[25]", "result": -0.082}, {"measurement": "glycan array binding signal (z-score)", "setting": "[26]", "result": 0.266}, {"measurement": "glycan array binding signal (z-score)", "setting": "[27]", "result": 0.089}, {"measurement": "glycan array binding signal (z-score)", "setting": "[28]", "result": -0.356}, {"measurement": "glycan array binding signal (z-score)", "setting": "[29]", "result": -0.347}, {"measurement": "glycan array binding signal (z-score)", "setting": "[30]", "result": -0.365}, {"measurement": "glycan array binding signal (z-score)", "setting": "[31]", "result": 0.675}, {"measurement": "glycan array binding signal (z-score)", "setting": "[32]", "result": -0.379}]}
